The source gives no read counts; variants with many changes may rest on few reads.
B1: CPEB3 Ribozyme (parent)
chain: UAACAGGGGGCCACAGCAGAAGCGUUCACGUCGCAGCCCCUGUCAGAUUCUGGUGAAUCUGCGAAUUCUGCUGUAUAUCUC

Variants of: B1
Assay: self-cleavage, relative activity (ratio to wild type); higher = more cleavage; in vitro, sequencing
Procedure, shortened: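 After error-prone PCR and barcoding, CPEB3 ribozyme mutant libraries were transcribed with T7 RNA polymerase at 37°C for 5 hours, then given 15 min with DNase I before an EDTA stop, and they cleaved during both steps. Reverse transcription with template switching preceded Illumina sequencing. Relative activity divides a variant's cleaved/total read fraction by the unmutated ribozyme's. At least 5 reads were required per variant, and three batches were averaged.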

Variant | self-cleavage
UAACAGGGGGCCACUGCAGAAGCGUACACGUCGCAGCCCCUGUCAGAUUCUGGUGAAUCUGCGAGUUCUGCUGUAUGUCUC [A15U U26A A65G A77G] | 0.15
UAACAGGGGGCCACUGCAGAAGCGUACACGUCGCAGCCCCUGUCAGAUUCUGGUGAAUCUGCGAUUUCUGCUGUAUAUCUC [A15U U26A A65U] | 0.22
UAACAGGGGGCCACUGCAGAAGCGUACACGUCGAAGCCCCUGUCAGAUUCUGGUGAAUCUGCGAAGUCUGCUGUAUAUCUC [A15U U26A C34A U66G] | 0.18
UAACAGGGGGCCACUGCAGAAGCGUCCACGUCGCGGCCCCUGUCAGAUUCUGGUGAAUCUGCGAAUCCUGCUGUAUAUCUC [A15U U26C A35G U67C] | 0.15
UAACAGGGGGCCACUGCAGAAGCGUCCACGUCGCUGCCCCCGUCAGAUUCUGGUGAAUCUGCGAAUUCUGCUGUAAAACUC [A15U U26C A35U U41C U76A U78A] | 0.18
UAACAGGGGGCCACUGCAGAAGCGUCCACGUCGCAGCCCCUGUCAGGUUCUGGUGAAUCUGCGAACUCAGCUGUAUAUCUC [A15U U26C A47G U66C U69A] | 0.1
UAACAGGGGGCCACUGCAGAAGCGUCCACGUCGCAGCCCCUGUCAGAUUCUGGUGUAUCUGCGAAUUCUGCUGUAUAUCUC [A15U U26C A56U] | 0.4
UAACAGGGGGCCACUGCAGAAGCGUCCACGUCGCAGCCCCUGUCAGAUUCUGGUGAAUCUGCGAAUUCUACUGUACACCUC [A15U U26C G70A U76C U78C] | 0.07
UAACAGGGGGCCACUGCAGAAGCGUCCACGACGCAGCCCCUGCCAGAUUCUGGUGAAUCUGCGAGUUCUGCUGUAUAUCUC [A15U U26C U31A U43C A65G] | 0.07
UAACAGGGGGCCACUGCAGAAGCGUCCACGUCGCAGCCCCUGUCAGAUUCUGGCGAGUCUGCGAAUUCUGCUGUAUAUCUC [A15U U26C U54C A57G] | 0.15
UAACAGGGGGCCACUGCAGAAGCGUCCACGUCGCAGCCCCUGUCAGAUUCUGGUGAAUCUGCGAACUCUGCUGAAUAUCUC [A15U U26C U66C U74A] | 0.06
UAACAGGGGGCCACUGCAGAAGCGUGCGCGUCGCAGCCCCUGUCAGAUUCUGGUGAAUCUGCGAAUUCUGCUGUAUAUCUC [A15U U26G A28G] | 0.09
UAACAGGGGGCCACUGCAGAAGCGUUCACGACGCAGCCCCUGUCAGAUUCCGGUGAAUCUGCGGAUUCUGCUGUGUACCUC [A15U U31A U51C A64G A75G U78C] | 0.1
UAACAGGGGGCCACUGCAGAAGCGUUCACGACGCAGCCCCUGUCAGAUUCUGGUGAACCUGCGAAUUCUGCUGUAUAUCUC [A15U U31A U58C] | 0.19
UAACAGGGGGCCACUGCAGAAGCGUUCACGCCGCGGCCCCUGUCAGAUUCUGGUGAAUCAGCGAAUUCUAAUGUAUAUCUC [A15U U31C A35G U60A G70A C71A] | 0.4
UAACAGGGGGCCACUGCAGAAGCGUUCACGCCGCAGCCCCUGUCAGAUUCUGGUGGAUCUGCGAAUUCUGCUGUGUACCUC [A15U U31C A56G A75G U78C] | 0.21
UAACAGGGGGCCACUGCAGAAGCGUUCACGCCGCAGCCCCUCUCAGAUUCUGGUGAAUCUGCGGACUCUGCUGUAUAUCUC [A15U U31C G42C A64G U66C] | 0.12

Variant | self-cleavage
UAACAGGGGGCCACUGCAGAAGCGUUCACGCCGCAGCCCCUGUCAGAUUCUGGUGAAUCUGCGAAUCCUGCUGUAUACCUC [A15U U31C U67C U78C] | 0.12
UAACAGGGGGCCACUGCAGAAGCGUUCACGGCGCAGCCCCUGUCAGAUUCUGGCGAAUCUGCGAAUUCUGCUGUAUAUCUC [A15U U31G U54C] | 0.34
UAACAGGGGGCCACUGCAGAAGCGUUCACGUCGCAGCCCCAGUCAGAUUCUGGUGAAUCUGCGGAUUCUGCAGUAUAUCUC [A15U U41A A64G U72A] | 0.04
UAACAGGGGGCCACUGCAGAAGCGUUCACGUCGCAGCCCCAGUCAGACUCUGGUGAAUCUGCGAAUUCUGCUGUAUACCUC [A15U U41A U48C U78C] | 0.13
UAACAGGGGGCCACUGCAGAAGCGUUCACGUCGCAGCCCCAGUCAGAUACUGGUGAGUCUGCGAACUCUGCCGUAUAUCUC [A15U U41A U49A A57G U66C U72C] | 0.09
UAACAGGGGGCCACUGCAGAAGCGUUCACGUCGCAGCCCCAGUCAGAUCCAGGUGAAUCUGCGAAUCCUGCUGUAUAUCUC [A15U U41A U49C U51A U67C] | 0.11
UAACAGGGGGCCACUGCAGAAGCGUUCACGUCGCAGCCCCAGUCAGAUUCCGGUGAAUCUGCGAAUUCUGCUGUAAAUCUC [A15U U41A U51C U76A] | 0.27
UAACAGGGGGCCACUGCAGAAGCGUUCACGUCGCAGCCCCAGUCAGAUUCUGGUGAAUCUGCGAAAUUUGCUGUAUAUCUC [A15U U41A U66A C68U] | 0.24
UAACAGGGGGCCACUGCAGAAGCGUUCACGUCGCAGCCCCCGUCAGAUUCUGGUGAAUCUGCGAGUUCUGCUGAAUAUCUC [A15U U41C A65G U74A] | 0.65
UAACAGGGGGCCACUGCAGAAGCGUUCACGUCGCAGCCCCCGUCAGAUUCUGGUGAAUCUGUGAAUUCUGCAGUAUAUCUC [A15U U41C C62U U72A] | 0.13
UAACAGGGGGCCACUGCAGAAGCGUUCACGUCGCAGCCCCCGUCAGAUUCUGGUGAAUCAGCGAAUCCUGCUGUAUAUCUC [A15U U41C U60A U67C] | 0.3
UAACAGGGGGCCACUGCAGAAGCGUUCACGUCGCAGCCCCCGUCAGAUUCUGGUGAAUCCGCGAAUUCUGCUGUAUAUCUC [A15U U41C U60C] | 0.37
UAACAGGGGGCCACUGCAGAAGCGUUCACGUCGCAGCCCCGGUCAGAUUCUGGUGAACCUGCGGAUUCUGCCGUAUAUCUC [A15U U41G U58C A64G U72C] | 0.15
UAACAGGGGGCCACUGCAGAAGCGUUCACGUCGCAGCCCCUGACAGACUCUGGUGAAUCUGCGAAUAGUGCUGUAUAUCCC [A15U U43A U48C U67A C68G U80C] | 0.1
UAACAGGGGGCCACUGCAGAAGCGUUCACGUCGCAGCCCCUGCCAGUUUCUGGUGAAUCCGCGAAUUCCGCUGUAUAUCUC [A15U U43C A47U U60C U69C] | 0.18
UAACAGGGGGCCACUGCAGAAGCGUUCACGUCGCAGCCCCUGCCAGAUUCUGGUGAAUCUGCGAACUCUGCAGUAUAUCUC [A15U U43C U66C U72A] | 0.12
UAACAGGGGGCCACUGCAGAAGCGUUCACGUCGCAGCCCCUGUCAGAACCUGGUGAAUCUGCGAAUUCUGCUGUACAACUC [A15U U48A U49C U76C U78A] | 0.77

From the RNAGym collection of RNA variant scans (doi:10.1093/nar/gkz1192)
